# The full ranking holds about 33,000 sequences; the median of “E-score (-0.5 to 0.5)” is about -0.04, and the highest 2% start at about 0.36. This is one part of the list.
# Biological target: T1, Hmlalpha2 (UniProt P0CY09)
# T1 sequence: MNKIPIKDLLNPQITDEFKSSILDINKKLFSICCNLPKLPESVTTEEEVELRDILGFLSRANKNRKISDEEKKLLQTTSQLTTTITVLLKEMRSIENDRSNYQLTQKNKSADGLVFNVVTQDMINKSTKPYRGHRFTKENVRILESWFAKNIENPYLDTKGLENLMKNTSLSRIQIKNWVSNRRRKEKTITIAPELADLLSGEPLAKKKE
# Experiment: PBM E-score (8-mer binding enrichment) (E-score (-0.5 to 0.5)); higher = stronger / more preferred TF binding; most listed sequences are background and not binding sites
# Conditions: protein concentration: 200 nM; construct: GST-full length
# In short: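 Full-length yeast transcription factors or their DNA-binding domains, GST-tagged and expressed with PURExpress, were applied at about 100-200 nM to universal all-10-mer Agilent arrays. These arrays had been made double-stranded by primer extension on fresh or once-stripped slides. Detection used fluorescent anti-GST, normalisation used masliner, and E-scores for ungapped eight-base words pooled with reverse complements came from the Universal PBM Analysis Suite.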
row,Sequence,PBM E-score
1,GCTTGATA,0.00761
2,GAATAAAA,0.247
3,AGTCACCC,-0.298
4,CGTCGGTA,-0.018
5,ATATCGGG,-0.163
6,TCAAATGA,-0.102
7,AATGAAGT,0.0316
8,AACGGGAA,-0.00155
9,GCATACAA,0.108
10,GCATCCCC,-0.344
11,ACCACGTG,0.137
12,ACGTGTAG,0.429
13,ACGGCGAG,0.0639
14,GGACTCTA,-0.0649
15,ACTCTAAA,0.0412
16,CTGAAGTC,-0.223
17,CATAATCG,-0.13
18,ATTAAGTC,0.189
19,AAGAGGTG,-0.00734
20,CTACCGCA,-0.215
21,AGGTATTA,0.164
22,ACTACTAG,0.0964
23,AGCGCGCT,0.0199
24,GCTTGCCA,-0.0301
25,TCGGCGAA,-0.26

row,Sequence,PBM E-score
1,AGGTGAGG,-0.36
2,GCCCTGCC,-0.203
3,CCCGGCAA,-0.0383
4,AGAAGTCC,-0.183
5,CAATACGC,0.265
6,CTGAACGC,-0.0206
7,CCGGCCGG,-0.122
8,GGTGACAA,0.145
9,GCATCACC,-0.261
10,TTCCTAAA,0.0359
11,ATCCAGTG,0.0457
12,CCGCGTTA,0.336
13,CTCCTGGA,-0.261
14,TAATTCTA,0.19
15,GCGCTCGA,-0.0541
16,ACGTCGGG,-0.251
17,GCCGGACA,-0.109
18,GATTAGGA,-0.162
19,CTCAGGAA,-0.0715
20,AGTTTAAG,0.0532
21,TTAAGCAA,0.147
22,CTGAGACA,-0.136
23,AGGAACCT,0.00098
24,ATGTTATA,0.418
25,ACTCGCTC,0.0551

row,Sequence,PBM E-score
1,ATAGGCAA,-0.0747
2,GACTGTGA,-0.0129
3,AGCCCATA,-0.018
4,AGCTCTTA,0.0441
5,CCATCTCC,-0.219
6,GGCCGCCA,-0.256
7,AGGATTCC,-0.175
8,CTAGATGC,-0.145
9,CGACTCGA,-0.0823
10,CGTCGGAA,0.135
11,AGGCTTAA,-0.135
12,AAATGAAA,0.183
13,CTCCGAAA,-0.116
14,CGCAAAGC,-0.156
15,ACGAGGGA,-0.0452
16,GAGATGGA,-0.206
17,GGTATGTA,0.4
18,ATCTCCGC,-0.214
19,CAAGAACA,0.208
20,CCACTTGC,-0.337
21,ACCCATCT,-0.0821
22,CACACGTA,0.271
23,CCGTTGCG,-0.113
24,CGGAGGGA,-0.335
25,GAGAAACA,0.171

row,Sequence,PBM E-score
1,GAGTGTGA,0.0212
2,AAAGCCGC,-0.245
3,GCAGCGGC,-0.197
4,ATCCCTAA,-0.265
5,CGGCCAAC,-0.174
6,ACCGTCCT,-0.139
7,AGGTAGTG,-0.0862
8,AACGATTG,0.165
9,ACCAGGTA,-0.111
10,AAATTGGA,0.134
11,CCTTGGAG,-0.15
12,ACGGTTAT,-0.0775
13,CAATGAGA,-0.0807
14,CGTGACCC,-0.00165
15,AGTGGCCG,-0.325
16,CCCATCGC,-0.281
17,GTTTCTTA,0.0738
18,ATGTCGGA,0.0661
19,GCGGGAAA,0.00677
20,GAATTACA,0.444
21,CTCTCGCC,-0.323
22,GGCTGAAA,0.0965
23,AGATCGAA,-0.0126
24,TCTAGAGA,-0.201
25,CGTATTAG,0.263

row,Sequence,PBM E-score
1,ATTCATCC,0.128
2,AAAAGGTT,-0.259
3,AGATAGTC,-0.0659
4,CCATAATA,0.00645
5,CCCTGAGG,-0.0852
6,CAGTGATC,-0.0129
7,GCACTCAC,-0.121
8,GCGAGCGC,-0.0986
9,GGCTTAAA,-0.0594
10,CATTGGGC,-0.211
11,ATCCTTCA,0.209
12,GACTTCAC,-0.0702
13,CGTCCACC,-0.24
14,AAAACAAT,0.249
15,CTCTCAAA,0.0696
16,CCACGTTC,-0.0393
17,ATAACAGC,0.254
18,TGAAGCCA,0.0489
19,AAGCTGGT,0.11
20,ATTGCTTG,0.102
21,GGTAAGGA,-0.0864
22,AAGTACCA,0.077
23,AGACTCCA,-0.265
24,TATAGGCA,-0.129
25,TAGTTGAA,0.0913

row,Sequence,PBM E-score
1,GTCCAAGA,-0.209
2,TCACGCCA,-0.00448
3,AATAATAA,0.311
4,GCGTTTTA,0.192
5,CACGATAC,0.127
6,AATTAAAT,0.13
7,CCATTTCC,0.00202
8,CAGCCGAG,-0.14
9,GTTCGACA,0.283
10,AAACAGAT,0.213
11,AGCTTTGG,-0.155
12,ACGTAATG,0.408
13,CTGTCTCA,-0.319
14,AGTGCGGA,-0.0409
15,AGGGCCAC,-0.049
16,CCGGCTCC,-0.369
17,CAATATCC,-0.142
18,ATCCCTGA,-0.143
19,AGGGTCCC,-0.257
20,CCGAAAAG,-0.0714
21,GCGAAGCC,-0.242
22,CTGTTTCA,0.0707
23,ATGGGAGA,-0.179
24,TAAACTTA,0.228
25,AGGCGCGG,-0.0549

row,Sequence,PBM E-score
1,GGAGAACC,-0.23
2,GTGCCAAC,0.0171
3,CAGAGCGC,-0.0746
4,AGATCCAT,-0.18
5,AAAATCGT,0.0614
6,CACGTCAA,0.185
7,AGATCTAT,0.0951
8,AATTGGTC,0.145
9,ATATCCAT,0.0625
10,AGCGTGAC,0.0851
11,CTCTTCCC,-0.154
12,CAGGAACC,-0.149
13,AGGAGGAA,0.0527
14,ACCCAAGT,0.0612
15,AACGATCG,0.0315
16,AACTAGTC,-0.0213
17,ATACTGGG,-0.184
18,ACGCCATG,0.167
19,AAGCTTGG,-0.289
20,CGCTGGTA,-0.0542
21,AACCACCT,-0.154
22,GCCAGGCA,-0.222
